Data taken from the supplement of paper PMC8728848.
The list shows a part of the results.

What was measured:
Assay in all cases: glycan array binding signal (z-score within array); higher = stronger binding
Conditions in all cases: glycan notation: IUPAC condensed, linker removed
[1] = target: Neu5Ac(a2-3)Gal(b1-3)GalNAc(b1-3)Gal(a1-4)Gal(b1-4)Glc
How it was run: (§1)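 Columns mapping to the same glycan were averaged after glycan names were converted to IUPAC-condensed notation. The data come from 3228 arrays in the Consortium for Functional Glycomics database, limited to those with an available protein sequence. Binding is reported as a within-array Z-score averaged across arrays of one protein sequence and across linkers.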

[2] = target: Neu5Ac(a2-3)Gal(b1-3)GalNAc(b1-4)[Neu5Ac(a2-3)]Gal(b1-4)Glc
How it was run: as §1

[3] = target: Neu5Ac(a2-3)Gal(b1-3)GalNAc(b1-4)[Neu5Ac(a2-8)Neu5Ac(a2-3)]Gal(b1-4)Glc
How it was run: as §1

[4] = target: Neu5Ac(a2-3)Gal(b1-3)GalNAc6S
How it was run: as §1

[5] = target: Neu5Ac(a2-3)Gal(b1-3)GlcNAc
How it was run: as §1

[6] = target: Neu5Ac(a2-3)Gal(b1-3)GlcNAc(b1-2)Man
How it was run: as §1

[7] = target: Neu5Ac(a2-3)Gal(b1-3)GlcNAc(b1-2)Man(a1-3)[GlcNAc(b1-4)][Neu5Ac(a2-3)Gal(b1-3)GlcNAc(b1-2)Man(a1-6)]Man(b1-4)GlcNAc(b1-4)GlcNAc
How it was run: as §1

[8] = target: Neu5Ac(a2-3)Gal(b1-3)GlcNAc(b1-2)Man(a1-3)[Neu5Ac(a2-3)Gal(b1-3)GlcNAc(b1-2)Man(a1-6)]Man(b1-4)GlcNAc(b1-4)GlcNAc
How it was run: as §1

[9] = target: Neu5Ac(a2-3)Gal(b1-3)GlcNAc(b1-3)Gal(b1-3)GlcNAc
How it was run: as §1

[10] = target: Neu5Ac(a2-3)Gal(b1-3)GlcNAc(b1-3)Gal(b1-4)GlcNAc
How it was run: as §1

[11] = target: Neu5Ac(a2-3)Gal(b1-3)GlcNAc(b1-3)GalNAc
How it was run: as §1

[12] = target: Neu5Ac(a2-3)Gal(b1-3)GlcNAc(b1-4)Gal(b1-4)Glc
How it was run: as §1

[13] = target: Neu5Ac(a2-3)Gal(b1-3)GlcNAc(b1-6)GalNAc
How it was run: as §1

[14] = target: Neu5Ac(a2-3)Gal(b1-3)GlcNAc6S
How it was run: as §1

[15] = target: Neu5Ac(a2-3)Gal(b1-3)[Fuc(a1-4)]GlcNAc
How it was run: as §1

[16] = target: Neu5Ac(a2-3)Gal(b1-3)[Fuc(a1-4)]GlcNAc(b1-3)Gal(b1-3)[Fuc(a1-4)]GlcNAc
How it was run: as §1

[17] = target: Neu5Ac(a2-3)Gal(b1-3)[Fuc(a1-4)]GlcNAc(b1-3)Gal(b1-4)[Fuc(a1-3)]GlcNAc
How it was run: as §1

[18] = target: Neu5Ac(a2-3)Gal(b1-3)[GlcNAc(b1-6)]GalNAc
How it was run: as §1

[19] = target: Neu5Ac(a2-3)Gal(b1-3)[Neu5Ac(a2-6)]GalNAc
How it was run: as §1

[20] = target: Neu5Ac(a2-3)Gal(b1-3)[Neu5Ac(a2-6)]GlcNAc(b1-3)[Fuc(a1-3)[Gal(b1-4)]GlcNAc(b1-6)]Gal(b1-4)Glc
How it was run: as §1

[21] = target: Neu5Ac(a2-3)Gal(b1-3)]Neu5Ac(a2-3)Gal(b1-4)]GlcNAc
How it was run: as §1

Neu5Ac(a2-3)Gal(b1-4)Glc = target: Neu5Ac(a2-3)Gal(b1-4)Glc
How it was run: as §1

[22] = target: Neu5Ac(a2-3)Gal(b1-4)GlcNAc
How it was run: as §1

[23] = target: Neu5Ac(a2-3)Gal(b1-4)GlcNAc(b1-2)Man
How it was run: as §1

[24] = target: Neu5Ac(a2-3)Gal(b1-4)GlcNAc(b1-2)Man(a1-3)[GlcNAc(b1-4)][Neu5Ac(a2-3)Gal(b1-4)GlcNAc(b1-2)Man(a1-6)]Man(b1-4)GlcNAc(b1-4)GlcNAc
How it was run: as §1

[25] = target: Neu5Ac(a2-3)Gal(b1-4)GlcNAc(b1-2)Man(a1-3)[Neu5Ac(a2-3)Gal(b1-4)GlcNAc(b1-2)Man(a1-6)]Man(b1-4)GlcNAc(b1-4)GlcNAc
How it was run: as §1

[26] = target: Neu5Ac(a2-3)Gal(b1-4)GlcNAc(b1-2)Man(a1-3)[Neu5Ac(a2-3)Gal(b1-4)GlcNAc(b1-2)Man(a1-6)]Man(b1-4)GlcNAc(b1-4)[Fuc(a1-6)]GlcNAc
How it was run: as §1

[27] = target: Neu5Ac(a2-3)Gal(b1-4)GlcNAc(b1-2)Man(a1-3)[Neu5Ac(a2-6)Gal(b1-4)GlcNAc(b1-2)Man(a1-6)]Man(b1-4)GlcNAc(b1-4)GlcNAc
How it was run: as §1

[28] = target: Neu5Ac(a2-3)Gal(b1-4)GlcNAc(b1-2)[Neu5Ac(a2-3)Gal(b1-4)GlcNAc(b1-4)]Man(a1-3)[GlcNAc(b1-4)][Neu5Ac(a2-3)Gal(b1-4)GlcNAc(b1-2)[Neu5Ac(a2-3)Gal(b1-4)GlcNAc(b1-6)]Man(a1-6)]Man(b1-4)GlcNAc(b1-4)GlcNAc
How it was run: as §1

[29] = target: Neu5Ac(a2-3)Gal(b1-4)GlcNAc(b1-2)[Neu5Ac(a2-3)Gal(b1-4)GlcNAc(b1-4)]Man(a1-3)[GlcNAc(b1-4)][Neu5Ac(a2-3)Gal(b1-4)GlcNAc(b1-4)Man(a1-6)]Man(b1-4)GlcNAc(b1-4)GlcNAc
How it was run: as §1

[30] = target: Neu5Ac(a2-3)Gal(b1-4)GlcNAc(b1-2)[Neu5Ac(a2-3)Gal(b1-4)GlcNAc(b1-6)]Man(a1-6)[Neu5Ac(a2-3)Gal(b1-4)GlcNAc(b1-2)Man(a1-3)]Man(b1-4)GlcNAc(b1-4)GlcNAc
How it was run: as §1

[31] = target: Neu5Ac(a2-3)Gal(b1-4)GlcNAc(b1-2)[Neu5Ac(a2-3)Gal(b1-4)GlcNAc(b1-6)]Man(a1-6)[Neu5Ac(a2-3)Gal(b1-4)GlcNAc(b1-2)Man(a1-3)][GlcNAc(b1-4)]Man(b1-4)GlcNAc(b1-4)GlcNAc
How it was run: as §1

[32] = target: Neu5Ac(a2-3)Gal(b1-4)GlcNAc(b1-3)Gal
How it was run: as §1

[33] = target: Neu5Ac(a2-3)Gal(b1-4)GlcNAc(b1-3)Gal(b1-3)GlcNAc
How it was run: as §1

[34] = target: Neu5Ac(a2-3)Gal(b1-4)GlcNAc(b1-3)Gal(b1-4)GlcNAc
How it was run: as §1

[35] = target: Neu5Ac(a2-3)Gal(b1-4)GlcNAc(b1-3)Gal(b1-4)GlcNAc(b1-2)Man(a1-3)[Neu5Ac(a2-3)Gal(b1-4)GlcNAc(b1-3)Gal(b1-4)GlcNAc(b1-2)Man(a1-6)]Man(b1-4)GlcNAc(b1-4)GlcNAc
How it was run: as §1

[36] = target: Neu5Ac(a2-3)Gal(b1-4)GlcNAc(b1-3)Gal(b1-4)GlcNAc(b1-3)Gal(b1-4)GlcNAc
How it was run: as §1

[37] = target: Neu5Ac(a2-3)Gal(b1-4)GlcNAc(b1-3)Gal(b1-4)GlcNAc(b1-3)Gal(b1-4)GlcNAc(b1-2)Man(a1-3)[Neu5Ac(a2-3)Gal(b1-4)GlcNAc(b1-3)Gal(b1-4)GlcNAc(b1-3)Gal(b1-4)GlcNAc(b1-2)Man(a1-6)]GalNAc
How it was run: as §1

[38] = target: Neu5Ac(a2-3)Gal(b1-4)GlcNAc(b1-3)Gal(b1-4)GlcNAc(b1-3)GalNAc
How it was run: as §1

[39] = target: Neu5Ac(a2-3)Gal(b1-4)GlcNAc(b1-3)Gal(b1-4)GlcNAc(b1-3)[Neu5Ac(a2-3)Gal(b1-4)GlcNAc(b1-3)Gal(b1-4)GlcNAc(b1-6)]GalNAc
How it was run: as §1

[40] = target: Neu5Ac(a2-3)Gal(b1-4)GlcNAc(b1-3)Gal(b1-4)GlcNAc(b1-6)[Gal(b1-3)]GalNAc
How it was run: as §1

[41] = target: Neu5Ac(a2-3)Gal(b1-4)GlcNAc(b1-3)Gal(b1-4)[Fuc(a1-3)]GlcNAc
How it was run: as §1

[42] = target: Neu5Ac(a2-3)Gal(b1-4)GlcNAc(b1-3)GalNAc
How it was run: as §1

[43] = target: Neu5Ac(a2-3)Gal(b1-4)GlcNAc(b1-3)[Neu5Ac(a2-3)Gal(b1-4)GlcNAc(b1-6)]GalNAc
How it was run: as §1

[44] = target: Neu5Ac(a2-3)Gal(b1-4)GlcNAc(b1-6)GalNAc
How it was run: as §1

B1: Fm1D (Escherichia coli) (protein)
chain: FSCNVDGGSSIGAGTTSVYVNLDPVIQPGQNLVVDLSQHISCWNDYGGWYDTDHINLVQGSAFAGSLQSYKGSLYWNNVTYPFPLTTNTNVLDIGDKTPMPLPLKLYITPVGAAGGVVIKAGEVIARIHMYKIATLGSGNPRNFTWNIISNNSVVMPTHHHHHH
glycan array binding signal (z-score) [1]: -0.129
glycan array binding signal (z-score) [2]: -0.151
glycan array binding signal (z-score) [3]: -0.145
glycan array binding signal (z-score) [4]: -0.141
glycan array binding signal (z-score) [5]: -0.143
glycan array binding signal (z-score) [6]: -0.135
glycan array binding signal (z-score) [7]: -0.139
glycan array binding signal (z-score) [8]: -0.145
glycan array binding signal (z-score) [9]: -0.148
glycan array binding signal (z-score) [10]: -0.141
glycan array binding signal (z-score) [11]: -0.147
glycan array binding signal (z-score) [12]: -0.143
glycan array binding signal (z-score) [13]: -0.129
glycan array binding signal (z-score) [14]: -0.143
glycan array binding signal (z-score) [15]: -0.134
glycan array binding signal (z-score) [16]: -0.131
glycan array binding signal (z-score) [17]: -0.142
glycan array binding signal (z-score) [18]: -0.141
glycan array binding signal (z-score) [19]: -0.142
glycan array binding signal (z-score) [20]: -0.146
glycan array binding signal (z-score) [21]: -0.136
glycan array binding signal (z-score) (Neu5Ac(a2-3)Gal(b1-4)Glc): -0.141
glycan array binding signal (z-score) [22]: -0.145
glycan array binding signal (z-score) [23]: -0.14
glycan array binding signal (z-score) [24]: -0.145
glycan array binding signal (z-score) [25]: -0.147
glycan array binding signal (z-score) [26]: -0.144
glycan array binding signal (z-score) [27]: -0.144
glycan array binding signal (z-score) [28]: -0.147
glycan array binding signal (z-score) [29]: -0.144
glycan array binding signal (z-score) [30]: -0.137
glycan array binding signal (z-score) [31]: -0.144
glycan array binding signal (z-score) [32]: -0.146
glycan array binding signal (z-score) [33]: -0.149
glycan array binding signal (z-score) [34]: -0.14
glycan array binding signal (z-score) [35]: -0.145
glycan array binding signal (z-score) [36]: -0.144
glycan array binding signal (z-score) [37]: -0.134
glycan array binding signal (z-score) [38]: -0.15
glycan array binding signal (z-score) [39]: -0.14
glycan array binding signal (z-score) [40]: 1.11
glycan array binding signal (z-score) [41]: -0.146
glycan array binding signal (z-score) [42]: -0.145
glycan array binding signal (z-score) [43]: -0.141
glycan array binding signal (z-score) [44]: -0.143
